# In PubChem BioAssay AID1745845 (National Center for Advancing Translational Sciences (NCATS), 2022):
# Hit rate of the full screen: of about 360,000 compounds, about 2,600 (0.72%) were called active. The shares of active, inactive and inconclusive entries below differ from those in the screen. Calls come from the whole dose curve; as a rule, active = well fitted inhibition curve with a large enough effect; inconclusive = small, poorly fitted or top-dose-only effect; inactive = no such curve, though single readings can be large or run the other way. Where the call is inconclusive, the potency comes from a doubtful curve fit.
# Assay: Primary qHTS for Inhibitors of ATXN expression; note: nearly all actives have a fitted effect of over 55% in size
# Conditions: HEK-293 ATXN2-luciferase reporter, luminescence, 24 h; activity change, negative = inhibition: at 57 µM (top of the series)
# How it was run: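 ATXN2-luciferase reporter cells (luciferase flanked by upstream and downstream ATXN2 gene portions) were treated 24 h at 37 °C with compounds at up to 57 uM. SteadyGlo luminescence gave expression; GF-AFC fluorescence gave viability.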
# % is set by controls: 0 for no effect and ±100 for the full control effect; potency is the fitted concentration of half-maximal effect; tags give direction and shape of the fitted curve.
SMILES,"activity change, negative = inhibition",Potency
O=C(NNC(=S)Nc1ccccc1)c1cc(-c2cccnc2)nc2ccccc12,inactive: -1.05%,–
CN1CCCN(C(=O)c2cccc(-c3ccc(C=C4C(=O)Nc5ccc(Cl)cc54)o3)c2)CC1,–,active: 7.69 µM
COc1ccc(NC(C)=O)cc1NC(=O)C1(c2cccs2)CCOCC1,inactive: 7.54%,–
CCN1C[C@@H]2[C@@H]3C(=O)N(Cc4ccccc4)C(=O)[C@@H]3[C@](Cc3ccccc3)(C1=O)N2C(=O)c1ccc(C(C)(C)C)cc1,–,"inconclusive: 39.8 µM [inhibitor, single point]"
O=C(NCCc1ccccc1)c1ccc2c(c1)S(=O)(=O)c1ccccc1C2=O,inactive: 0.498%,–
Cc1c(C(=O)N(CCc2ccccc2)Cc2ccccc2)cccc1[N+](=O)[O-],–,"inconclusive: 31.6 µM [inhibitor, single point]"
CC(C)(C)c1cc(NC(=O)c2cccs2)no1,inactive: 31.3%,–
O=S(=O)(c1ccc(F)cc1)N(CC(O)Cn1c2ccccc2c2ccccc21)c1ccccc1 (stereo not given),–,"inconclusive: 39.8 µM [inhibitor, single point]"
COc1cc(NC(=O)c2cc(-c3ccc(F)cc3OC(C)C)n[nH]2)cc(OC)c1OC,–,"inconclusive: 35.5 µM [inhibitor, single point]"
O=[N+]([O-])c1cc(S(=O)(=O)N2CCOCC2)ccc1NS(=O)(=O)c1ccccc1,inactive: 2.85%,–
COC(=O)[C@@]1(Sc2ccc(C)cc2)CC(=O)N(C(=O)/C=C/c2ccccc2)[C@@H]1c1ccccc1,–,"inconclusive: 39.8 µM [inhibitor, single point]"
O=C(Nc1ccccc1F)c1ccc(Cn2nc(N3CCN(c4ccccc4)CC3)ccc2=O)o1,–,"inconclusive: 39.8 µM [inhibitor, single point]"
COc1ccc(OC)c(NC(=O)C2(C)CCN2Cc2cccc(OC)c2F)c1 (stereo not given),–,"inconclusive: 25.1 µM [inhibitor, single point]"
CCOc1ccc(-c2cnc(NCc3cccc4ccccc34)n2CCOC)cc1,–,"inconclusive: 25.1 µM [inhibitor, single point]"
Cc1ccc2sc(-c3ccc(N)cc3)nc2c1,–,"inconclusive: 14.1 µM [inhibitor, single point]"
Cc1ccc(NC(=O)CN2C(=O)c3ccccc3S2(=O)=O)cc1C,–,"inconclusive: 15.8 µM [inhibitor, partial curve, poor fit]"
CCc1ccc(-n2c(=O)c3sc4ccccc4c3n(CC(=O)N(CC)Cc3ccccc3)c2=O)cc1,inactive: 8.97%,–
CC(c1n[nH]c(=S)n1-c1ccccc1)N1CCCCC1 (stereo not given),inactive: -0.683%,–
Cc1nc(-[n+]2nc(-c3ccncc3)nn2-c2ccccc2)sc1C,–,"inconclusive: 15.8 µM [inhibitor, partial curve, poor fit]"
CCc1cc(Cn2nc(-c3ccccc3)cc2C(=O)NCc2cccs2)on1,–,"inconclusive: 15.8 µM [inhibitor, partial curve, poor fit]"

SMILES,"activity change, negative = inhibition",Potency
O=c1c2ccc(Cl)cc2nc(-c2cccc(C(F)(F)F)c2)n1O,–,"inconclusive: 12.6 µM [inhibitor, partial curve]"
CCOC(=O)c1sc(NC(=O)CSc2nc3c(cc2C#N)CCCCCC3)c(C#N)c1C,–,"inconclusive: 39.8 µM [inhibitor, single point]"
Fc1ccc(COc2cccc(CNCc3ccncc3)c2)cc1,–,"inconclusive: 9.47 µM [inhibitor, partial curve, poor fit]"
CCOc1ccc(S(=O)(=O)NCCC(=O)N2CC=C(c3ccccc3)CC2)cc1,–,"inconclusive: 28.2 µM [inhibitor, partial curve]"
COc1ccc(-[n+]2c(C)cc(/C=C3\Sc4ccccc4N3C)cc2C)cc1,–,"inconclusive: 0.282 µM [inhibitor, full curve, poor fit]"
CC(Nc1nc(-c2ccc(F)cc2)cs1)c1nc2cc(C(F)(F)F)ccc2n1CCCO (stereo not given),–,"inconclusive: 28.2 µM [inhibitor, partial curve, poor fit]"
c1ccc(CCNc2ncnc3c2nnn3Cc2ccccc2)cc1,–,"inconclusive: 22.4 µM [inhibitor, partial curve, poor fit]"
C=CCn1c(NC(=O)c2ccccc2)nc2ccccc21,inactive: 54.7%,–
Cc1ccc(NC(=O)C2CCN(S(=O)(=O)c3ccc4c(c3)CC(C)N4C(=O)C3CCC3)CC2)nc1 (stereo not given),–,"inconclusive: 17.8 µM [inhibitor, partial curve, poor fit]"
CCn1c(=O)c(=O)n(CC)c2cc(S(=O)(=O)N3CCc4ccccc43)ccc21,–,"inconclusive: 35.5 µM [inhibitor, partial curve, poor fit]"
Cc1ccc(Cl)cc1N1CCN(Cc2nc3c(c(=O)[nH]c(=O)n3C)n2CCc2ccccc2)CC1,–,"inconclusive: 25.1 µM [inhibitor, single point]"
CCOC(=O)C1=C(C)N=c2s/c(=C\c3ccc(O)c([N+](=O)[O-])c3)c(=O)n2C1c1ccccc1OC (stereo not given),–,"inconclusive: 10 µM [inhibitor, single point]"
C=CCn1c(=O)c2ccc(C(=O)NCc3ccccc3)cc2n(Cc2ccc(Cl)cc2)c1=O,–,"inconclusive: 28.2 µM [inhibitor, single point]"
CCN(c1ccccc1)S(=O)(=O)c1nnc(NC(=O)c2ccccc2OC)s1,inactive: 6.79%,–
O=C(NCC1CCCO1)C(c1cccs1)N(Cc1ccccc1)C(=O)c1ccc(-c2ccccc2)[nH]1 (stereo not given),inactive: -2.42%,–
CCN(CC)S(=O)(=O)c1ccc(C)c(NC(=S)N2CCN(Cc3ccc4c(c3)OCO4)CC2)c1,inconclusive: -46.7% [inhibitor],–
O=C(NCCCN1CCCC1)[C@H](CSCc1ccccc1)N1Cc2ccccc2C1=O,–,"inconclusive: 0.708 µM [inhibitor, full curve, poor fit]"
O=C(C#Cc1ccccc1)Nc1cccc(F)c1,–,"inconclusive: 37.7 µM [inhibitor, single point]"
O=C(Nc1cccc(Cl)c1)C1CCCN(S(=O)(=O)c2ccc(F)cc2)C1 (stereo not given),inactive: -20.2%,–
CCCCN(CCO)c1ncnc2sc(-c3ccccc3)cc12,–,"inconclusive: 31.6 µM [inhibitor, partial curve, poor fit]"
